Results taken from PubChem BioAssay AID1645887 (National Center for Advancing Translational Sciences (NCATS), 2021).
“And” between values parts separate entries of the source, which are not always exact repeats. Equal entries are not always repeated. Hit rate of the full screen: of about 16,000 compounds, about 40 (0.2%) were called active. Roughly 1% stayed inconclusive and do not appear here. The call rests on the fitted dose curve; in most records, active means well fitted activation curve with a large enough effect; inconclusive means small, poorly fitted or top-dose-only effect, or another doubt; inactive means no such curve, though single readings can be large or run the other way. Some of the results follow. Positions of bridges follow the written chain, without caps; N, C: chain ends. Residues, ends and D or L forms follow the SMILES beside them.

These compounds were tested against Rap guanine nucleotide exchange factor 4 (Homo sapiens) (UniProt Q8WZA2) (assay: Validation qHTS for agonist of cAMP-regulated guanine nucleotide exchange factor 4 (EPAC2)). Conditions: EPAC2 Rap1B BODIPY-GDP exchange, fluorescence; activation: stronger effect = higher value.
Procedure, shortened: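 Fluorescent exchange assay: 100 nM EPAC2 with 250 nM RAP1B-BODIPY-GDP and 50 uM GDP; compound added, 5 min at room temperature, then read (ex 480/em 540 nm) every 5 min for 30 min. Normalized to 6.5 mM cAMP agonist control.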
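Further: exchange makes BODIPY-GDP fluorescence drop when released from Rap1B; series mostly up to about 150 µM.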
On the % scale 0 is the no-effect control and ±100 the full control effect.

UniProt Q8WZA2, sequence (Q8WZA2 whole entry, looked up): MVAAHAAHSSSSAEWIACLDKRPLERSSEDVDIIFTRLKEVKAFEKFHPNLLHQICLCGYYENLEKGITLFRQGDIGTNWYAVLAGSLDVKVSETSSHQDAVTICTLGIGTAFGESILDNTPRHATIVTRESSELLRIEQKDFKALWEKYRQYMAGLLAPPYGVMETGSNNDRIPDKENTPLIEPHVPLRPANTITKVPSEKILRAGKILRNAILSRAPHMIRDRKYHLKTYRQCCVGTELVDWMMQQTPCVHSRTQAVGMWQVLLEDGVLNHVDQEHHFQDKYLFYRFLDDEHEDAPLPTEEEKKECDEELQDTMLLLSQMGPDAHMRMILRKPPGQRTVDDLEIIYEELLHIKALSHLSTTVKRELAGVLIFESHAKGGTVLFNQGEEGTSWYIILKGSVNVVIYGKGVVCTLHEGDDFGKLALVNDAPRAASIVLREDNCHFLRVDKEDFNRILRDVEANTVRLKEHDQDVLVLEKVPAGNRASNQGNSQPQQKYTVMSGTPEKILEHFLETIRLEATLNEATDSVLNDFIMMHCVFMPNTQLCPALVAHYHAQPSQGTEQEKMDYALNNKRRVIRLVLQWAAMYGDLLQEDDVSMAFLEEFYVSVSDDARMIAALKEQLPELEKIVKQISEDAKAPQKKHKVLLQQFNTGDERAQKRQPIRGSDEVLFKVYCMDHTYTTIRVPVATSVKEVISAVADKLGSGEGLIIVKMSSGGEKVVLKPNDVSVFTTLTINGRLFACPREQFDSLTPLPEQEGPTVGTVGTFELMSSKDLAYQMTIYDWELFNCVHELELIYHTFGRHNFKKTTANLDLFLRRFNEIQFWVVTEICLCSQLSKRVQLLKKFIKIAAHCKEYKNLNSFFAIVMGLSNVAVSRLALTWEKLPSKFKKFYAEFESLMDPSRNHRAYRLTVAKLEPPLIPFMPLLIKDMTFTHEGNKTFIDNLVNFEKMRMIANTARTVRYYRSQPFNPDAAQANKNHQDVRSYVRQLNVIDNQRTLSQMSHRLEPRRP

activation, inactive:
CS(=O)(=O)N1CCC2(CC1)CN(C(=O)Nc1cccc(F)c1)C2 -18.8%, CC1(C)S[C@@H]2C(C(=O)O)NC(=O)N2C1C(=O)O (stereo partly drawn) -3.68%, Oc1cc2c(c(Cl)c1O)CCNC[C@H]2c1ccccc1 -2.9%, O=C(Nc1ccc(C(=O)Nc2ccc(C(=O)Nc3ccc(S(=O)(=O)O)c4cc(S(=O)(=O)O)cc(S(=O)(=O)O)c34)cc2)cc1)Nc1ccc(C(=O)Nc2ccc(C(=O)Nc3ccc(S(=O)(=O)O)c4cc(S(=O)(=O)O)cc(S(=O)(=O)O)c34)cc2)cc1 -35.4% and -24%, COc1c(O)c2c(=O)cc(OC)c3c4c(OC)cc(=O)c5c(O)c(OC)c(C[C@@H](C)OC(=O)c6ccccc6)c(c(c1C[C@@H](C)OC(=O)Oc1ccc(O)cc1)c23)c54 6.32%, S=C1SCN(Cc2ccccc2)CN1Cc1ccccc1 -7.18%, Cn1cccc1C(=O)N1CCC2(CC1)CCN(c1ccccc1)CC2 -6.03%, CC(=O)c1ccc(F)c(-c2cc(C)cc3c2OC(CNC(=O)c2cccnc2)C3)c1 (stereo not drawn) 3.26%, N#Cc1cccc(-c2cncnc2NCCc2cnc[nH]2)c1 -13.4%, O=C(O)c1cc2cc(Cl)ccc2[nH]1 -6.92%, COC(=O)C1CCN(Cc2ccc3c(c2)CN(C(=O)c2sc(C)nc2C)CCO3)CC1 -16%, C[C@H]1CCC(=O)N([C@H](CN=[N+]=[N-])Cc2ccccc2)CC1 -10.3%, COCC(=O)N1CCC2(CC1)CCN(c1ccccn1)CC2 -18.7%, COc1ccccc1CN1CC2(CCN(C(=O)c3cnccn3)CC2)C1 -16.6%, O=C(CCCN1CCN(c2ccc(F)cc2)CC1)NC1c2ccccc2CSc2ccccc21 (stereo not drawn) -5.59%, Cc1cccc2cc(CN(C(=O)c3ccc(N4CCCCC4)cc3)C3CC3)c(N3CCC(O)CC3)nc12 1.62%, COc1ccc2ccc(=O)oc2c1 -10.1%, OC[C@H]1O[C@@H]2O[C@H]3[C@H](O)[C@@H](O)[C@@H](O[C@H]4[C@H](O)[C@@H](O)[C@@H](O[C@H]5[C@H](O)[C@@H](O)[C@@H](O[C@H]6[C@H](O)[C@@H](O)[C@@H](O[C@H]7[C@H](O)[C@@H](O)[C@@H](O[C@H]1[C@H](O)[C@H]2O)O[C@@H]7CO)O[C@@H]6CO)O[C@@H]5CO)O[C@@H]4CO)O[C@@H]3CO -3.13%, NCCCC[C@H](NC(=O)[C@@H]1CCCN1C(=O)[C@@H]1CSSC[C@H](NC(=O)CNC(=O)CNC(=O)CN)C(=O)N[C@@H](Cc2ccc(O)cc2)C(=O)N[C@@H](Cc2ccccc2)C(=O)N[C@@H](CCC(N)=O)C(=O)N[C@@H](CC(N)=O)C(=O)N1)C(=O)NCC(N)=O (H-GGGCYFQNCPKG-NH2; disulfide 4-9) -2.01%, CCOC(=O)[C@@H](N)CS 9.62%, Oc1ccc(Cl)cc1Cc1cc(Cl)ccc1O -25.9% and 23.4%, NS(=O)(=O)c1cc(C(=O)O)c(NCc2ccco2)cc1Cl -18.7% and 20.7%, CCc1ccc(S(=O)(=O)O)cc1 -0.278%, COCCn1c(=O)c(C)nc2cnc(N3CCN(C)CC3)nc21 -5.44%, CCCCC/C=C\CC(O)/C=C/c1cccc(CC(O)CCCCO)n1 (stereo not drawn) -72.1%, O=C(O)c1cc(=O)c2ccccc2o1 -8.55%, COc1ccccc1CN1CCCC2(CCN(C(=O)c3c(C)noc3C)CC2)C1 -1.85%, CC(C)NC(=O)c1cn(C2CCC(NC(=O)C(C)(C)C)CC2)nn1 (stereo not drawn) -0.269%, CN(CCc1ccc(Cl)c(Cl)c1)CCN1CCCCCC1 -12.4%, COc1ccc2oc(-c3ccccc3)c(OC)c(=O)c2c1 -0.783%, COc1ccc(CN2CCN(C(C)=O)CC2)cc1OC1CCN(C(=O)c2ccc3[nH]c(C)c(C)c3c2)CC1 -13.8%, CCCCCCCCCCCCC/C=C/[C@@H](O)[C@H](CO)NC(C)=O -30.8%, CC(C)NC(=O)N1CCC2(CC1)CCN(C(=O)c1cc(C(F)(F)F)cc(C(F)(F)F)c1)CC2 -27.7%, O=C(c1csnn1)N1CCC2(CCN(Cc3nccs3)CC2)CC1 1.77%, Cc1cc(CNC(=O)CCN2Cc3cc(Cl)ccc3OC(C)C2)nn1C (stereo not drawn) 2.24%, C#CCC(Cc1cnc2nc(N)nc(N)c2n1)c1ccc(C(=O)N[C@@H](CCC(=O)O)C(=O)O)cc1 (stereo partly drawn) 4.51%, O=C(c1cc(C(F)(F)F)cc(C(F)(F)F)c1)N1CCC2(CCCN(c3ccccn3)C2)CC1 -5.25%, O=[N+]([O-])c1cccc2c[nH]nc12 -3.07%, Cn1c(=O)c(-c2cc(F)cc(F)c2)nc2cnc(N3CCNCC3)nc21 0.721%, CC(C)(C)NCC(O)COc1cccc2[nH]c(=O)[nH]c12 (stereo not drawn) -22.2% and -21.6%, NC(=O)C(=O)N/N=C/c1ccc([N+](=O)[O-])o1 -7.47%, COc1cc(=O)n2c(c1C(=O)N(C)Cc1nonc1C)CCN(Cc1cccc(Cl)c1)CC2 -7.65%, CC(=O)N1CCC2(CCCN(Cc3ccccc3)C2)CC1 0.549%, COc1ccc(OC)c(-c2ccnc(-n3ncc(C(=O)N(C)CCc4ccccn4)c3C)n2)c1 -12.8%, COc1ccc(C(=O)C[n+]2cc(Br)cc(Br)c2)cc1 -7.1%, CNCCCCc1cnc(C)c2[nH]c3ccccc3c12 -4.63%, CCCCCCCCCCCCCCCCSCC(COC)COP(=O)([O-])OCC[N+](C)(C)C (stereo not drawn) -37%, CCOC(=O)NNc1ccc(N(CC)CC(C)O)nn1 (stereo not drawn) 6.95%, COc1ccccc1C1CN(Cc2cccc3nccnc23)Cc2ccccc2O1 (stereo not drawn) 12.9%, CC(=O)C[C@H]1c2cc(C(F)(F)F)ccc2S(=O)(=O)N1C1CCCCC1 -26.3%, OCc1ccccc1O -9.47%, Cc1ccc(C(=O)N2CCOc3ccc(CN4CCN(Cc5ccccn5)CC4)cc3C2)cc1 -4.8%, CNC(=O)[C@H]1O[C@@H](n2cnc3c(NCc4cccc(I)c4)nc(Cl)nc32)[C@H](O)[C@@H]1O 0.887%, Cc1ccccc1-c1ccc2ncnc(NCCN3CCOCC3)c2c1 -13%, COc1c(N2CCNC(C)C2)c(F)cc2c(=O)c(C(=O)O)cn(C3CC3)c12 (stereo not drawn) 14.8%, O=C(c1ccccc1)c1ccc2n1CCC2C(=O)O (stereo not drawn) -5.45% and -35.1% and -13.9%, CCOC(=O)[C@@](C)(N)Cc1ccc(O)c(O)c1 -6.8%, OC1C=C2CCN3Cc4cc5c(cc4C(C1O)C23)OCO5 (stereo not drawn) 6.27%, Cc1ccc2nc(N)[nH]c(=O)c2c1Sc1ccncc1 -20.6%, CC(C)(C)c1ccc2c(S(=O)(=O)O)c(C(C)(C)C)ccc2c1 -15.4% and -27.3%, CCCCCCCCCC[n+]1cccc2cc(Br)ccc21 -29.6%, OCC1(CO)COC(C(Cl)(Cl)Cl)OC1 -3.61%, CC1(C)CC2C1CCC1(C)OC2(C)CCC1O (stereo not drawn) -8.15%, CCNc1ncc2nc(-c3cc(F)cc(F)c3)c(=O)n(C3CC3)c2n1 -15.1%, CC(NNC(=O)c1ccccc1)c1ccccc1 (stereo not drawn) -14.1%, CCCCCN=C(N)N/N=C/c1c[nH]c2ccc(OC)cc12 -17.3% and -13.8%, COc1ccc(S(=O)(=O)N(CCO)c2ccccc2CN(C)C/C=C/c2ccc(Cl)cc2)cc1 19%, O=C(Nc1ccccc1)N1CCC2(CC1)CCN(C(=O)c1csnn1)CC2 4.16%, NS(=O)(=O)c1cccc2c1c([N+](=O)[O-])cc1[nH]c(=O)c(=O)[nH]c12 -17.5%, CCC1(C2CCN(C(=O)c3cc(F)ccc3F)CC2)NC(=O)N(CCc2scnc2C)C1=O (stereo not drawn) -3.84%, CN1CCN(c2ncc3nc(-c4cc(F)cc(F)c4)c(=O)n(CCC#N)c3n2)CC1 -18.5%, C[C@@H](CC(=O)O)[C@@H](N)C(=O)O -20.1% and 3.78%, COCCNc1cc(-c2c(C)noc2C)ncn1 -16.6%, COCC(=O)N1CCC2(CC1)CCN(c1ccncc1)CC2 -2.46%, OCC1OC(n2cnc3c(NCc4ccco4)ncnc32)C(O)C1O (stereo not drawn) -15.4%, Cc1noc(C)c1-c1ccc2ncnc(N3CCN(C)CC3)c2c1 -13.2%, CN(C)c1ccc(-c2cncnc2Nc2ccccc2)cc1 -10.1%, CN(Cc1ccco1)c1ncnc2ccc(-c3ccoc3)cc12 -13.2%, NC(Cc1cnc[nH]1)C(=O)Nc1ccc2ccccc2c1 (stereo not drawn) -7.31%, CN(CC[C@@H](Oc1ccc(-c2ccccc2)cc1)c1ccc(F)cc1)CC(=O)O -10.8%, CCCCCCCCCC(=O)O -6.56%, COc1ccc2c(c1)OC(C)CN(CCNC(=O)c1ccc(-n3cccn3)cc1)C2 (stereo not drawn) -25.5%, Cc1cccc(-c2cccc(C(=O)N3CCc4c(cnc(C)c4CNC(=O)c4cncs4)C3)c2)c1 -26.6%
